{"source": "the BET-seq Pho4 binding data (Le et al. 2018)", "note": "The other results are listed elsewhere or left out. The energies were worked out here from pooled read counts, against the library average; single values are noisy."}
{"target": "T1, Pho4 (S. cerevisiae) (UniProt P07270)", "T1 sequence": "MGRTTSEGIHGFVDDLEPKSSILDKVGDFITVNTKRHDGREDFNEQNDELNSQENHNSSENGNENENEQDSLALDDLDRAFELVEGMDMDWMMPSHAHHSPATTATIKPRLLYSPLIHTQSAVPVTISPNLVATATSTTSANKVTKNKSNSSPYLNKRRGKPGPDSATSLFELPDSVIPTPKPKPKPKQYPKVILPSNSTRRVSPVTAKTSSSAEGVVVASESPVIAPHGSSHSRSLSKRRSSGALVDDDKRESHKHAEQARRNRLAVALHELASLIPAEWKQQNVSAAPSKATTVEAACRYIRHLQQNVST", "experiment": "relative binding free energy (BET-seq); higher = weaker binding", "conditions": "reference: library average", "units": {"relative binding free energy": "kcal/mol"}}
{"sequence": "AGGATCACGTGTTTAG", "relative binding free energy": 0.1}
{"sequence": "GGCGTCACGTGTGAGC", "relative binding free energy": 0.24}
{"sequence": "TGTCTCACGTGAGTGT", "relative binding free energy": 0.22}
{"sequence": "GTAGACACGTGTGGTG", "relative binding free energy": 0.04}
{"sequence": "TATTTCACGTGAGTCG", "relative binding free energy": 0.41}
{"sequence": "GGGCACACGTGGCTGT", "relative binding free energy": 0}
{"sequence": "GGGGACACGTGAATAG", "relative binding free energy": 0.42}
{"sequence": "TAATGCACGTGATGGT", "relative binding free energy": 0}
{"sequence": "GTTTTCACGTGGGGTA", "relative binding free energy": 0.18}
{"sequence": "AATATCACGTGGGGAA", "relative binding free energy": -0.1}
{"sequence": "AAGGGCACGTGCAGGG", "relative binding free energy": -0.19}
{"sequence": "TAAAGCACGTGAGTGT", "relative binding free energy": 0.14}
{"sequence": "TTGACCACGTGTGGGA", "relative binding free energy": 0}
{"sequence": "GAGATCACGTGTTAAT", "relative binding free energy": 0.25}
{"sequence": "GAAGCCACGTGGGTTA", "relative binding free energy": -0.1}
{"sequence": "TATCACACGTGTTTTG", "relative binding free energy": -0.02}
{"sequence": "TAGAACACGTGTGGAG", "relative binding free energy": 0.06}
{"sequence": "TATCGCACGTGGGTGC", "relative binding free energy": -0.25}
{"sequence": "AGGGTCACGTGGTATT", "relative binding free energy": 0.12}
{"sequence": "TGTATCACGTGGGTAC", "relative binding free energy": 0.11}
{"sequence": "AGAGGCACGTGTGGGT", "relative binding free energy": 0.07}
{"sequence": "GGGGTCACGTGGGCGT", "relative binding free energy": 0.03}
{"sequence": "AGTAACACGTGTTGAT", "relative binding free energy": -0.08}
{"sequence": "CGCGTCACGTGGGGGT", "relative binding free energy": -0.08}
{"sequence": "GTAAACACGTGAGGGT", "relative binding free energy": 0.3}
{"sequence": "GTACGCACGTGAAGGG", "relative binding free energy": 0.22}
{"sequence": "ATTAACACGTGTGAGG", "relative binding free energy": 0.03}
{"sequence": "TGCAGCACGTGAGGAT", "relative binding free energy": 0.13}
{"sequence": "AGTGACACGTGGTTTG", "relative binding free energy": -0.03}
{"sequence": "GCGTACACGTGATAGG", "relative binding free energy": 0.38}
{"sequence": "TATGGCACGTGGGGGC", "relative binding free energy": -0.26}
{"sequence": "AGATGCACGTGTTATT", "relative binding free energy": 0.01}
{"sequence": "TAGTGCACGTGCTGGA", "relative binding free energy": -0.24}
{"sequence": "GTGGTCACGTGTTCCT", "relative binding free energy": 0.19}
{"sequence": "TGTACCACGTGCATGG", "relative binding free energy": 0}
{"sequence": "TCGTGCACGTGAGGGG", "relative binding free energy": 0.15}
{"sequence": "GCGGGCACGTGAAGGA", "relative binding free energy": 0.27}
{"sequence": "CGTTACACGTGTTATT", "relative binding free energy": 0.17}
{"sequence": "CAGTTCACGTGTGAGG", "relative binding free energy": 0.31}
{"sequence": "AGGTTCACGTGCTGAT", "relative binding free energy": 0.15}
{"sequence": "GGTAGCACGTGGCTTT", "relative binding free energy": -0.13}
{"sequence": "CTGCGCACGTGTTGTT", "relative binding free energy": -0.09}
{"sequence": "AGGGGCACGTGGCAGG", "relative binding free energy": -0.26}
{"sequence": "CTGTACACGTGTGAAG", "relative binding free energy": 0.16}
{"sequence": "GGGTTCACGTGTAATT", "relative binding free energy": 0.41}
{"sequence": "TCGGGCACGTGGTTCG", "relative binding free energy": -0.05}
{"sequence": "TGAGACACGTGGCGTG", "relative binding free energy": -0.16}
{"sequence": "TGGAACACGTGAGGCA", "relative binding free energy": 0.23}
{"sequence": "AGAAACACGTGTTTGG", "relative binding free energy": -0.07}
{"sequence": "TTGGGCACGTGGGATA", "relative binding free energy": -0.19}
{"sequence": "ATATGCACGTGTGTTA", "relative binding free energy": -0.18}
{"sequence": "CGTGTCACGTGTAAAG", "relative binding free energy": 0.3}
{"sequence": "ATTTGCACGTGAAGCT", "relative binding free energy": 0.24}
{"sequence": "GTGTGCACGTGGAGGT", "relative binding free energy": 0.04}
{"sequence": "CAAGTCACGTGATGTT", "relative binding free energy": 0.18}
{"sequence": "GTATACACGTGGTCTT", "relative binding free energy": 0.07}
{"sequence": "TGGGACACGTGTAGGC", "relative binding free energy": 0.06}
{"sequence": "AAGGGCACGTGTCTGT", "relative binding free energy": -0.07}
{"sequence": "GTATGCACGTGCTAGT", "relative binding free energy": -0.08}
{"sequence": "TTAAGCACGTGACTGT", "relative binding free energy": -0.04}
{"sequence": "TGGTACACGTGTAGCT", "relative binding free energy": 0.02}
{"sequence": "GGGAACACGTGATGTT", "relative binding free energy": 0.23}
{"sequence": "TATAACACGTGTGTTG", "relative binding free energy": -0.06}
{"sequence": "TTGTTCACGTGCGAAT", "relative binding free energy": 0.4}
{"sequence": "GTTTACACGTGTCGAG", "relative binding free energy": 0.12}
{"sequence": "ACTGTCACGTGGGATG", "relative binding free energy": -0.01}
{"sequence": "GGTCCCACGTGGTTTT", "relative binding free energy": 0.06}
{"sequence": "TTGTGCACGTGGTCCT", "relative binding free energy": -0.27}
{"sequence": "TCTTCCACGTGGGTGT", "relative binding free energy": 0.05}
{"sequence": "AGTGCCACGTGTTTTG", "relative binding free energy": -0.09}
{"sequence": "GAGTGCACGTGTAATA", "relative binding free energy": 0.2}
{"sequence": "AATGACACGTGCGGGT", "relative binding free energy": 0.02}
{"sequence": "ATGGTCACGTGTATGC", "relative binding free energy": 0.04}
{"sequence": "CGGCGCACGTGTTAGG", "relative binding free energy": -0.09}
{"sequence": "TTGTACACGTGGTGAG", "relative binding free energy": 0.07}
{"sequence": "GAGAACACGTGAGGGA", "relative binding free energy": 0.34}
{"sequence": "ACTGTCACGTGTGGTA", "relative binding free energy": 0.09}
{"sequence": "AGAAGCACGTGGAGGG", "relative binding free energy": -0.06}
{"sequence": "AGTTTCACGTGCGTAA", "relative binding free energy": 0.17}
{"sequence": "ACTGGCACGTGTTTTG", "relative binding free energy": 0}
{"sequence": "TAGAGCACGTGATTGT", "relative binding free energy": 0.03}
{"sequence": "TGTGACACGTGGAAGA", "relative binding free energy": 0.07}
{"sequence": "GTAGCCACGTGGGTGC", "relative binding free energy": -0.14}
{"sequence": "GGGATCACGTGAGGCT", "relative binding free energy": 0.34}
{"sequence": "TTGTACACGTGCTGGC", "relative binding free energy": 0.11}
{"sequence": "GAGGGCACGTGGGGGG", "relative binding free energy": -0.14}
{"sequence": "GATGACACGTGCGGGT", "relative binding free energy": 0.06}
{"sequence": "CTGGTCACGTGTGGCG", "relative binding free energy": 0.09}
{"sequence": "GTTTACACGTGTCGGA", "relative binding free energy": 0.19}
{"sequence": "TTGGACACGTGTTCTG", "relative binding free energy": 0.04}
{"sequence": "GTGTTCACGTGTCAGA", "relative binding free energy": 0.3}
{"sequence": "GGGTGCACGTGAGGAG", "relative binding free energy": 0.3}
{"sequence": "AATTTCACGTGCAGAT", "relative binding free energy": 0.29}
{"sequence": "TTAGTCACGTGTTGTC", "relative binding free energy": 0.16}
{"sequence": "GATTGCACGTGGGATG", "relative binding free energy": 0.02}
{"sequence": "TGGATCACGTGGTTAC", "relative binding free energy": 0.13}
{"sequence": "TATGGCACGTGGTCCG", "relative binding free energy": -0.18}
{"sequence": "GAGTTCACGTGATTTG", "relative binding free energy": 0.5}
{"sequence": "GGAGCCACGTGGTTGG", "relative binding free energy": -0.06}
{"sequence": "CGGTTCACGTGATTGG", "relative binding free energy": 0.39}
{"sequence": "TAGGTCACGTGATTTG", "relative binding free energy": 0.32}
{"sequence": "TGGGGCACGTGTGGTG", "relative binding free energy": -0.07}
{"sequence": "TACGGCACGTGCGTAG", "relative binding free energy": -0.01}
{"sequence": "GTGTTCACGTGAATAA", "relative binding free energy": 0.3}
{"sequence": "TGAGTCACGTGAGTGT", "relative binding free energy": 0.27}
{"sequence": "TTGGACACGTGTCTAG", "relative binding free energy": 0.04}
{"sequence": "AGTGCCACGTGGTAAT", "relative binding free energy": -0.08}
{"sequence": "GTATCCACGTGGGTGG", "relative binding free energy": -0.12}
{"sequence": "TTGAACACGTGAAGGC", "relative binding free energy": 0.55}
{"sequence": "CTTATCACGTGATTTT", "relative binding free energy": 0.24}
{"sequence": "ATTGTCACGTGCGGTC", "relative binding free energy": 0.06}
{"sequence": "GGTCTCACGTGGGGGT", "relative binding free energy": 0.11}
{"sequence": "ACTCTCACGTGGGGGG", "relative binding free energy": 0}
{"sequence": "CGGAACACGTGAGTGG", "relative binding free energy": 0.07}
{"sequence": "TGCGTCACGTGCGAGG", "relative binding free energy": 0}
